From PubChem BioAssay AID504332 (National Center for Advancing Translational Sciences (NCATS), 2011)
The campaign covered roughly 350,000 compounds. About 31,000 (8.9%) were called active. This list was built around the results that the source calls inconclusive (neither active nor inactive); the mix of calls is not that of the screen. The call rests on the fitted dose curve; in most records, active means well fitted inhibition curve with a large enough effect; inconclusive means small, poorly fitted or top-dose-only effect; inactive means no such curve, though single readings can be large or run the other way. Potencies beside an inconclusive call are fits to weak or partial responses and may not hold up.

These compounds were tested against Histone-lysine N-methyltransferase EHMT2 (Homo sapiens) (UniProt Q96KQ7) (assay: qHTS Assay for Inhibitors of Histone Lysine Methyltransferase G9a). Settings: G9a H3K9 monomethylation, AlphaScreen, 2 h; activity, negative = inhibition: at 59 µM (top of the series) unless noted.
Chain of UniProt Q96KQ7 (Q96KQ7 whole entry, looked up): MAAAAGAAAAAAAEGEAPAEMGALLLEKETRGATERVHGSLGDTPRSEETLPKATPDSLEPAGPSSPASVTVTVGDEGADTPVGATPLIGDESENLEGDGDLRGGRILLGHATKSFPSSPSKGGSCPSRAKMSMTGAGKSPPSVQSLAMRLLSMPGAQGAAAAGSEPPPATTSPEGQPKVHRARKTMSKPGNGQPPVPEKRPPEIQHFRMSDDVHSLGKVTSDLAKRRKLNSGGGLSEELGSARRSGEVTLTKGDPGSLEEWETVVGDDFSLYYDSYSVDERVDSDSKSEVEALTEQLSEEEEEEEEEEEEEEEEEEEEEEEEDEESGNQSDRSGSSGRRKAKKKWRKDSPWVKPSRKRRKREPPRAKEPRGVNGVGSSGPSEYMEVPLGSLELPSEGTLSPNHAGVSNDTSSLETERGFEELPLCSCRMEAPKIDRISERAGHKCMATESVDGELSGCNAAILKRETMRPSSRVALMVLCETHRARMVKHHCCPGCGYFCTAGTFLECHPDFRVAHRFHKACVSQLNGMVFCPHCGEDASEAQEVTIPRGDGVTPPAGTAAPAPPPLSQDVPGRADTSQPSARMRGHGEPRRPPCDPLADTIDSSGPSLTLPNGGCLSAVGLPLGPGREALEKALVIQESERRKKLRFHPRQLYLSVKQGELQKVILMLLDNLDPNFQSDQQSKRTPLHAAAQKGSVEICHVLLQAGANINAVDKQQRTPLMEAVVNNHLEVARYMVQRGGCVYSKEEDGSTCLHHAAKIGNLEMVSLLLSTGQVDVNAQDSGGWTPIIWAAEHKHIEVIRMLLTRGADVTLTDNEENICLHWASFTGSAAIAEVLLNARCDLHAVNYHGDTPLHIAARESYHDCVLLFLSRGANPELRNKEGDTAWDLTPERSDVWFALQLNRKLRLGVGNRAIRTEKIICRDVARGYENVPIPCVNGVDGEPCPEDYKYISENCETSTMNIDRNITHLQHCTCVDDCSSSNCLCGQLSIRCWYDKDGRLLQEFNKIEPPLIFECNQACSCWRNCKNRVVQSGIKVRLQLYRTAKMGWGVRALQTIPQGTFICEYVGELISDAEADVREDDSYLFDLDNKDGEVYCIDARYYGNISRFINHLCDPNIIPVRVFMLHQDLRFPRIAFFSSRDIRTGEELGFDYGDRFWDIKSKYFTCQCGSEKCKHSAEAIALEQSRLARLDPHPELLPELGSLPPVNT
Method in brief: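 AlphaScreen read-out: biotin-H3K9 peptide (500 nM) methylation by 20 nM enzyme with 20 uM SAM, 2 h at room temperature after 15 min compound preincubation; anti-monomethyl H3K9 antibody plus donor/acceptor beads, 10 min dark.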
Further: nearly all actives have a fitted effect of over 75% in size.
On the % scale 0 is the no-effect control and ±100 the full control effect; potency means the concentration at half of the fitted maximal effect; tags describe the fitted curve by direction and shape.

Row | Compound | activity, negative = inhibition | Potency
1 | O=C(Nc1ccc(C(=O)OCc2cc(=O)n3c4c(sc3n2)CCCC4)cc1)c1ccc(Cl)cc1 | inactive: -4.15% [at 12.7 µM] | 
2 | Cc1ccc(-n2c(SCC(=O)NNC(=S)Nc3ccccc3)nc3ccccc3c2=O)cc1 |  | inconclusive: 39.8 µM [inhibitor, single point]
3 | COc1cc2ccccc2cc1C(=O)Nc1ccc2oc(-c3ccc(Cl)cc3)nc2c1 |  | inconclusive: 7.94 µM [inhibitor, partial curve, poor fit]
4 | O=C1NC(=O)C2(COC(c3ccccc3Cl)OC2)S1 (stereo not drawn) |  | inconclusive: 5.01 µM [inhibitor, partial curve]
5 | CCOc1ccccc1-c1nc(-c2ccc(NC(=O)Cc3ccccc3OC)cc2)no1 |  | inconclusive: 70.8 µM [inhibitor, partial curve, poor fit]
6 | N#Cc1c(-c2ccccc2)nc(SCC(=O)N2c3ccccc3Sc3ccccc32)[nH]c1=O |  | inconclusive: 79.4 µM [inhibitor, single point]
7 | CCN(CC)S(=O)(=O)c1ccc(N/N=C/c2ccccc2OCC(=O)O)c([N+](=O)[O-])c1 |  | active: 39.8 µM
8 | COc1cccc(/C=C2\SC(=S)N(CCCC(=O)NC3=NCCS3)C2=O)c1 |  | inconclusive: 6.31 µM [inhibitor, full curve]
9 | CN(C)CCNC(=O)c1ccc2c(c1)N(Cc1ccc(F)cc1)CCS2 |  | inconclusive: 44.7 µM [inhibitor, partial curve, poor fit]
10 | Nn1c(Cc2ccc(F)cc2)n[nH]c1=S |  | active: 3.55 µM
11 | NC(C(=O)O)[C@@H]1CC(Cl)=NO1 (stereo partly drawn) | inactive: -33.8% [at 2.33 µM] | 
12 | O=C(c1ccc(Br)s1)N(Cc1cccnc1)c1nc2ccc(F)cc2s1 |  | inconclusive: 5.62 µM [inhibitor, single point]
13 | Cc1nc(/C(=N/O)C(N)=O)cs1 |  | active: 12.6 µM
14 | CCOc1ccccc1NC(=O)CN1C(=O)COc2ccc(S(=O)(=O)N3CCCCC3)cc21 | inactive: 2.9% | 
15 | CC1(C)CC(=O)c2sc(NC(=O)CN3CCOCC3)nc2C1 |  | inconclusive: 3.16 µM [inhibitor, single point]
16 | CCCn1c(CCC(=O)O)nc2cc(S(=O)(=O)N3CCCC3)ccc21 | inactive: 14% [at 12.7 µM] | 
17 | O=C(O)c1cccc(CN2C(=O)SC(Nc3cccc4ccccc34)C2=O)c1 (stereo not drawn) |  | active: 50.1 µM
18 | O=C(N/N=C/c1ccncc1)c1ccc(NC(=O)c2cccc(Cl)c2)cc1 |  | inconclusive: 39.8 µM [inhibitor, single point]
19 | Cc1cccc(NS(=O)(=O)c2ccc(C(=O)NCC3(N4CCCCC4)CCCCC3)cc2)c1C |  | inconclusive: 22.4 µM [inhibitor, partial curve, poor fit]
20 | O=C1CSC(=S)N1/N=C/c1c(F)cccc1F |  | active: 50.1 µM
21 | Cc1ncc(CO)c2cc(S(=O)(=O)c3ccc(F)cc3)c(=O)oc12 |  | inconclusive: 28.2 µM [inhibitor, single point]
22 | CC(C)(C)c1ccc(-c2nnc(SCC(=O)NC3CC3)o2)cc1 |  | inconclusive: 25.1 µM [inhibitor, single point]

Row | Compound | activity, negative = inhibition | Potency
23 | Cc1noc(C)c1C(=O)OCC(=O)NC(=O)NC12CC3CC(CC(C3)C1)C2 |  | inconclusive: 89.1 µM [inhibitor, partial curve, poor fit]
24 | COc1ccc(/C=N/NC(=O)C(=O)N2CCCC2)cc1OC |  | inconclusive: 1.26 µM [inhibitor, partial curve, poor fit]
25 | COC(=O)C1=C(C)NC(=S)NC1c1ccco1 (stereo not drawn) |  | inconclusive: 79.4 µM [inhibitor, partial curve, poor fit]
26 | Cc1cc(/C=C(\C#N)C(=O)OCC#N)c(C)n1CC(C)C | inactive: -11.7% | 
27 | OCCC1CN(Cc2cccn2-c2cccnc2)CCN1Cc1ccc(F)cc1 (stereo not drawn) | inconclusive: -54.7% [inhibitor] [at 0.501 µM] | 
28 | COc1cc(C2C(C#N)=C(N)Oc3c2oc(CO)cc3=O)cc(OC)c1OC (stereo not drawn) |  | inconclusive: 3.16 µM [inhibitor, partial curve, poor fit]
29 | CCOC(=O)c1c(C)oc2nc(C)nc(N3CCN(c4ccc(OC)cc4)CC3)c12 |  | active: 12.6 µM
30 | O=c1cc(CN2CCN(S(=O)(=O)c3ccccc3[N+](=O)[O-])CC2)nc2sccn12 |  | active: 39.8 µM
31 | O=C(NCCOc1ccccc1)c1ncn[nH]1 |  | inconclusive: 39.8 µM [inhibitor, single point]
32 | O=C(Nc1c2c(nn1-c1cccc(Cl)c1)CS(=O)C2)c1ccc2c(c1)OCO2 (stereo not drawn) |  | inconclusive: 56.2 µM [inhibitor, single point]
33 | COc1ccccc1-n1c(CNC(=O)COc2ccccc2)n[nH]c1=S |  | inconclusive: 3.98 µM [inhibitor, single point]
34 | Cc1cccc(-n2ncc3c2CCCC3NC(=O)CCN2CCCCO2)c1C (stereo not drawn) | inactive: 18.9% [at 102 µM] | 
35 | O=C(Nc1cccc(-c2cn3c(n2)SCC3)c1)c1ccc(Br)o1 |  | active: 7.94 µM
36 | CCOc1cc(CNCCO)cc(Br)c1OCc1ccc(Cl)cc1Cl |  | inconclusive: 50.1 µM [inhibitor, single point]
37 | c1ccc2c(CNCCN3CCOCC3)cccc2c1 |  | inconclusive: 79.4 µM [inhibitor, single point]
38 | CC(C)C(=O)Nc1cccc(NC(=O)CCN2C(=O)c3ccccc3S2(=O)=O)c1 | inactive: 21% | 
39 | Cc1ccc(S(=O)(=O)N(C)C)cc1NC(=O)COC(=O)CCC(=O)c1ccc(F)cc1 |  | inconclusive: 89.1 µM [inhibitor, single point]
40 | Cc1ccc(/C=C(\NC(=O)c2ccccc2)C(=O)NCCc2ccccn2)o1 |  | inconclusive: 28.2 µM [inhibitor, partial curve, poor fit]
41 | Cc1cc(C)c2c(=O)[nH]c(SCC(=O)Nc3ccc(N(C)C)cc3)nc2n1 |  | inconclusive: 10 µM [inhibitor, partial curve, poor fit]
42 | CCn1c(=O)c2sccc2n2c(CCC(=O)NCc3ccc(Cl)cc3)nnc12 | inactive: 8.47% | 
43 | Cc1csc2nc(COC(=O)c3ccc(NC(=O)C(C)C)cc3)cc(=O)n12 |  | inconclusive: 35.5 µM [inhibitor, partial curve, poor fit]
